Measured values: PubChem BioAssay AID445 (National Center for Advancing Translational Sciences (NCATS), 2006)
Out of some 110,000 compounds screened, about 40 (0.04%) were called active. The inconclusive results got no clear call from the source; some entries with a clear call stand among them for comparison. Calls come from the whole dose curve; as a rule, active = well fitted curve in the direction sought with a large enough effect in the signal ratio (not every such curve was filed as active); inconclusive = small, poorly fitted or top-dose-only effect, or a change in a side signal; inactive = flat fitted curve, though single readings scatter; the % refers to the signal ratio. Where the call is inconclusive, the potency comes from a doubtful curve fit.

Test: IkB Signaling;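 for IkBa stabilization activation: 0% = basal untreated cells and 100% = reference inhibitor full response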
Details: ABC-DLBCL IkBa-CBG/CBR dual luciferase ratio (green luciferase fused to IkBa over red control in OCI-Ly3 lymphoma cells), 4 h; IkBa stabilization activation: at 57.1 µM (top of the series), scaled: untreated 0%, proteasome inhibitor 100% unless noted
Outline: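 Curves were fitted separately to fusion (green), unfused (red) and ratio luminescence, then classed by r2, magnitude and activity. Cells: OCI-Ly3, 4 h compound plus doxycycline at 37C; 10 uM MG-132 defined full response.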
Potency is the fitted concentration of half-maximal effect.

Compound | IkBa stabilization activation | Potency
COc1ccc(NC(=O)CC2C(=O)N(c3cccc(OC)c3)C(=O)N2CCC2=CCCCC2)cc1 (centres undefined) | inconclusive: 1.33% [signal inhibitor] | –
Cc1ccc(NS(=O)(=O)c2ccc3nc(-c4ccccc4)[nH]c3c2)c(Br)c1 | inconclusive: -3.08% [signal inhibitor] | –
Cc1ccc(Nc2nc3ccc(C(=O)c4ccccc4)cc3n3c(C)nnc23)c(C)c1 | inconclusive: 0.0664% [signal inhibitor] | –
CCOC(=O)c1ccccc1NC(=O)CCNC(=O)Cn1cnc2ccccc2c1=O | inactive: 0.88% | –
Cc1sc2ncn(CC(=O)N(C)c3ccc(C(C)C)cc3)c(=O)c2c1S(=O)(=O)N1CCC(C)CC1 | inconclusive: 5.4% [signal inhibitor] | –
CC1CCC(NC(=O)C2(C)Cc3ccccc3C(=O)N2Cc2ccc(Cl)cc2)CC1 (centres undefined) | inconclusive: 1.41% [signal inhibitor] | –
COc1cc2c(C(=O)NCc3ccccn3)cn(C)c(=O)c2cc1OC | inactive: -1.05% | –
COc1ccccc1-c1cc(C(=O)Nc2cc(C)on2)no1 | – | inconclusive: 2 µM [signal inhibitor, full curve]
COc1ccc(-c2nsc3c(N4CCN(C(=O)c5ccco5)CC4)ncnc23)cc1 | inactive: -2.59% | –
Cc1cccc(OCCCC(=O)Nc2ccc(N3CCOCC3)cc2)c1 | inactive: -0.761% | –
CCCn1c(=O)c2sccc2n2c(CCCC(=O)N3CCN(c4cccc(Cl)c4)CC3)nnc12 | inactive: -2.11% | –
CC(=O)c1cccc(NC(=O)CN2C(=O)CC(c3ccc(C)cc3C)=Nc3ccccc32)c1 | inconclusive: 10.2% [signal inhibitor] | –
O=C(/C=C/c1ccc(Cl)cc1)N1CCC(c2nc3ccccc3o2)CC1 | – | inconclusive: 12.6 µM [signal inhibitor, partial curve]
CCCCN(CC)CCCNC(=O)c1cn(CC)c2ccc(S(=O)(=O)N3CCc4ccccc4C3)cc2c1=O | inconclusive: -2.27% [signal inhibitor] | –
CC(=O)Nc1nnc2n1CCS2 | inconclusive: 0.087% [signal inhibitor] | –
Cc1ccc(CN2CCC(CNC(=O)Nc3ccc(C)c(C)c3)C2)cc1 (centres undefined) | inconclusive: 1.08% [signal inhibitor] | –
Cc1noc(C)c1COC(=O)c1cc2c3ccccc3n(C)c2s1 | inconclusive: 1.79% [signal inhibitor] | –
COc1ccc(C)cc1NC(=O)c1oc2ccc(S(=O)(=O)N3CCC4(CC3)OCCO4)cc2c1C | inconclusive: 2.07% [signal inhibitor] | –
COC(=O)c1ccc(COc2ccc3c(C)c(C)c(=O)oc3c2C)o1 | inconclusive: 15.3% [signal inhibitor] | –
CCCCc1ccc2nc(NC(=O)OC)[nH]c2c1 | – | inconclusive: 1.58 µM [signal activator, partial curve]
CC(C)N(C(=O)Cn1cc(SCC(=O)Nc2ccccc2C(F)(F)F)c2ccccc21)C(C)C | inactive: -0.838% | –
CCOc1ccc(C2C(C(=O)Nc3ccccc3C)=C(C)Nc3nnnn32)cc1 (centres undefined) | inactive: -0.718% | –
Cc1nc2nc(C)c(NS(=O)(=O)c3ccc(CC(C)C)cc3)c(=O)n2[nH]1 | inconclusive: 7.14% [signal inhibitor] | –

Compound | IkBa stabilization activation | Potency
Cc1cc(NC(c2cccnc2)c2c(C)[nH]c3ccccc23)no1 (centres undefined) | inactive: 0.501% | –
CCn1c(CN2CCOCC2)nc2cc(NC(=O)c3cccc([N+](=O)[O-])c3)ccc21 | inconclusive: 2.53% [signal inhibitor] | –
COc1ccc(NC(=O)Cn2cc(C(=O)c3ccccc3OC)c(=O)c3ccc(C)nc32)cc1OC | inactive: 0.866% | –
Cc1cc(NC(=O)CCCS(=O)(=O)c2nc(-c3cccs3)cc(C(F)(F)F)n2)no1 | inconclusive: -0.265% [signal inhibitor] | –
CC1CC(C)CN(S(=O)(=O)c2ccc(C(=O)N3CCN(c4ccccc4)CC3)cc2)C1 (centres undefined) | inconclusive: 2.4% [signal inhibitor] | –
CCN(CC)S(=O)(=O)c1ccc2oc(C(=O)NCc3ccc(F)cc3)c(C)c2c1 | inconclusive: 5.34% [signal inhibitor] | –
COc1ccc(C(=O)c2oc3ccccc3c2NC(=O)c2cccc(OC)c2)cc1 | inactive: -4.36% | –
CCN(CC)CCOC(=O)c1ccc(NC(=O)c2cc3c(s2)-c2ccccc2OC3)cc1 | inconclusive: 3.08% [signal inhibitor] | –
Clc1cccc(C2=NC(c3cccs3)=Nc3ccc(Br)cc3N2)c1 | inconclusive: -0.00658% [signal inhibitor] | –
Cc1nc(-c2ccc(S(=O)(=O)Nc3ccc(Cl)c(C(F)(F)F)c3)cc2)co1 | inconclusive: 9.63% [signal inhibitor] | –
CSc1nc2c(c(=O)[nH]c(=O)n2C)n1C/C=C(\C)Cl | inactive: 0.067% | –
CCOc1ccccc1CNC(=O)c1cnc2sc(N(CC)CC)nn2c1=O | inconclusive: -1.43% [signal inhibitor] | –
CC(C)CN(CCNC(=O)c1cc(-c2cccs2)nc2ccccc12)CC(C)C | inconclusive: 2.9% [signal inhibitor] | –
Cn1c(=O)c2c(c3ccccc31)OC(=O)CC2c1cccc(Cl)c1 (centres undefined) | – | inconclusive: 15.8 µM [signal inhibitor]
COc1ccccc1/C=C/c1nc(C#N)c(NCC(C)C)o1 | inconclusive: 0.64% [signal inhibitor] | –
Cc1ccc2c(c1)c1nc3ccccc3nc1n2CCN1CCOCC1 | inactive: -1.35% | –
COc1ccccc1CNc1ncnc2c1nnn2Cc1ccccc1 | inconclusive: 11.2% [signal inhibitor] | –
CCOc1cccc(CC(=O)N2CCc3c([nH]c4ccccc34)C2c2ccc(SC)cc2)c1OCC (centres undefined) | inactive: 1.18% | –
Cc1ccc(-c2nn(C)c(=O)c3ccccc23)cc1S(=O)(=O)N1CCCC1 | – | inconclusive: 31.6 µM [rising, partial curve]
COc1cc2[nH]c3c(N4CCN(c5ccccn5)CC4)ncnc3c2cc1OC | inconclusive: -3.68% [signal inhibitor] | –
Cc1nc(NCc2ccco2)c2c3c(sc2n1)CCC3 | inconclusive: -0.486% [signal inhibitor] | –
Nc1ccn([C@H]2O[C@@H](COP(=O)(O)O)[C@@H](O)[C@H]2O)c(=O)n1 | inactive: 1.96% [at 11.4 µM, scaled: untreated 0%, proteasome inhibitor 100%] | –
CCOC(=O)c1c(NC(=O)c2ccco2)sc2c1CCCCC2 | inactive: 9.62% | –

Compound | IkBa stabilization activation | Potency
CCCN(CCC)C(=O)c1nn(C)c2c1CSc1ccc(C)cc1-2 | inconclusive: -2.82% [signal inhibitor] | –
CC(C)c1nnc(NC(=O)c2c(O)c3cccc4c3n(c2=O)CC4)s1 | inconclusive: 11.7% [signal inhibitor] | –
CSc1ccccc1NC(=O)c1noc2c1CCC2 | inconclusive: 10.7% [signal inhibitor] | –
O=C(O)c1ccc(-n2c(-c3ccccc3)n[nH]c2=S)cc1 | inconclusive: 15.2% [signal inhibitor] | –
CC(C)Cn1c(=O)c2ccccc2n2c(CCC(=O)Nc3ccc(F)cc3)nnc12 | inconclusive: 0.939% [signal inhibitor] | –
CCOC(=O)N1CCC(NC(=O)c2cnn(-c3ccc(OC)cc3)c2C2CCN(C(=O)OC(C)(C)C)CC2)CC1 | inconclusive: -0.413% [signal inhibitor] | –
Fc1ccc2[nH]c3c(N4CCSCC4)ncnc3c2c1 | inconclusive: -6.19% [signal inhibitor] | –
Cc1ccccc1NC(=O)COc1ccc2oc3c(c2c1)CCCC3 | inconclusive: 5.82% [signal inhibitor] | –
Cc1cc(Cl)ccc1OC(C)C(=O)Nc1ccccc1N1CCOCC1 (centres undefined) | inconclusive: 1.15% [signal inhibitor] | –
O=C(CN1C(=O)COc2ccc(S(=O)(=O)N3CCCCCC3)cc21)N1CCN(c2ccc(F)cc2)CC1 | inconclusive: 2.13% [signal inhibitor] | –
COc1ccc(-c2cc3nc(C)c(CCC(=O)NCCc4ccc(Cl)cc4)c(C)n3n2)c(OC)c1 | inconclusive: 16.6% [signal inhibitor] | –
Cc1ccc(Cn2c(=O)c3cccnc3n(Cc3ccc(C)cc3)c2=O)cc1 | inconclusive: -1.59% [signal inhibitor] | –
CCC(=O)Nc1cc(C)c(NC(=O)C23CC4CC(CC(C4)C2)C3)cn1 | inactive: 0.252% | –
Cc1ccc(CSc2ncc(Cl)c(C(=O)Oc3ccccc3F)n2)cc1 | inconclusive: 0.00168% [signal inhibitor] | –
Cc1ccccc1OCCn1cc(C(=O)c2ccco2)c2ccccc21 | inconclusive: 6.05% [signal inhibitor] | –
CC(C)COC(=O)n1c(SCC(=O)N(C)C)nc2ccccc21 | – | inconclusive: 25.1 µM [signal inhibitor, partial curve]
Cc1ccc2cccc(S(=O)(=O)N3CCN(c4ccccc4F)CC3)c2n1 | inconclusive: -2.93% [signal inhibitor] | –
CCCC(CCC)C(=O)NCCN1CCOCC1 | inactive: -0.893% | –
COc1cc(CNC(=O)c2ccc3nc(Cc4ccccc4)oc3c2)cc(OC)c1OC | inconclusive: 0.831% [signal inhibitor] | –
COc1cccc(C(=O)CC2(O)C(=O)N(Cc3ccccc3)c3ccccc32)c1 (centres undefined) | inconclusive: 11.8% [signal inhibitor] | –
Cc1ccccc1C(=O)Nc1sc2c(c1C(=O)N1CCC(C)CC1)CCC(C)C2 (centres undefined) | inconclusive: 14.4% [signal inhibitor] | –
COc1ccccc1-n1cnnc1SCC(=O)c1cc(C)n(Cc2cccs2)c1C | inconclusive: 0.897% [signal inhibitor] | –
CCOc1cc2[nH]c(=O)n(CCCCC(=O)N3CCN(c4ccccc4OC)CC3)c(=O)c2cc1OCC | inconclusive: 0.554% [signal inhibitor] | –
